Consider 83 compounds from ChEMBL document CHEMBL4888484, “Replenishing the malaria drug discovery pipeline: Screening and hit evaluation of the MMV Hit Generation Library 1 (HGL1) against asexual blood stage Plasmodium falciparum ,using a nano luciferase reporter read-out” (2022).

Molecules are shown by their SMILES. About 540 (0.36%) of roughly 150,000 compounds showed an effect of 50% or more. This is one part of the list.

The term % Inhibition denotes the change of the read-out against control, counted positive when it falls.

This assay deals with Plasmodium falciparum. Put plainly: Primary screen in NF54 nanoGlo assay, in single point, at 2uM, 72h; a lower Z score goes with more inhibition. Type of assay: functional, Erythrocyte. Conditions: timepoint 72 hour.
`Cc1cc(Br)ccc1CN[C@H]1COC[C@H]1n1ccnn1`: the “% Inhibition” value is recorded as -5% and the Z score stood at 0.76.
In the case of `COc1ccc(CC(=O)N[C@H]2CCN(c3nccs3)C2)cc1OC`, the “% Inhibition” value is 4% and the Z score is -0.73.
With `CCc1nnc(CNC2CCCCC2Oc2cccc(C)c2)o1` (stereo unspecified), the “% Inhibition” value was -5% and the Z score was 0.72.
The like results for `COc1cccc(C(=O)N2Cc3cc(NC(C)=O)ccc3C[C@H]2C(=O)N2CCCC2)c1` were, in that order, -9% and 1.46.
In the case of `O=C(Cc1c(F)cccc1Cl)N1CC[C@H](c2ccc3c(c2)OCO3)C1`, the “% Inhibition” value is reported as 8% and the Z score is recorded as -1.08.
In the case of `C[C@H]1c2ccccc2CN1S(=O)(=O)c1cccc(C(=O)NC2CC2)c1`, the “% Inhibition” value is on record as -13% and the Z score is listed as 1.91.
For the compound `Cc1csc(C(=O)N[C@H]2CCN(c3ccc4nncn4n3)C2)c1`, the “% Inhibition” value is reported as -14% and the Z score was found to be 2.25.
`CC(=O)N1CCC(C(=O)N2CCCCCCC2)CC1`: the “% Inhibition” value was -1% and the Z score worked out at 0.11.
For the compound `Cc1ccc(N(C)C)cc1NC(=O)N1CCCN([C@H]2COC[C@@H]2O)CC1`, the “% Inhibition” value is given as -2% and the Z score turned out to be 0.38.
In the case of `O=C(NCc1csc2c1CCCC2)c1cn(CCN2CCNCC2)nn1`, the “% Inhibition” value is recorded as -3% and the Z score came to 0.37.
As for `c1cc(-c2cnccn2)cc(-c2ccn(Cc3nnc(C4CC4)o3)n2)c1`, the “% Inhibition” value worked out at 10% and the Z score is given as -1.25.
The like results for `Oc1ccc2c(c1)Oc1ncn3nc(-c4ccc(Cl)cc4Cl)nc3c1[C@H]2c1ccccc1` were, in that order, -2% and 0.26.
Turning to `COc1ccccc1N1CCN(C(=O)c2cccc(N(C)C)c2)CC1`, the “% Inhibition” value is on record as -6% and the Z score is reported as 1.05.
On to `Cc1cccc(N2CCN(C(=O)c3c(-c4cncnc4)cc(=O)n4c3CCC4)CC2)c1C`, for which the “% Inhibition” value is reported as -3% and the Z score turned out to be 0.39.
Take `Clc1cnc(N2CCCC2C2CCCO2)nc1N1CCCC1C1CCCO1` (stereo unspecified): the “% Inhibition” value is -3% and the Z score came out at 0.51.
Turning to `Cc1nccnc1[C@H](C)NCc1ccc(C2CC2)cc1F`, the “% Inhibition” value is on record as -1% and the Z score stood at 0.15.
As to `CN(C)CCn1ccc(NC(=O)N2CCN(c3nccc4sccc34)CC2)n1`, the “% Inhibition” value is on record as -30% and the Z score is given as 3.55.
Consider `COc1ccccc1NC(=O)COc1ccccc1C(=O)c1cnn(-c2ccccc2)c1`, for which the “% Inhibition” value is -18% and the Z score turned out to be 2.87.
In the same order, the values of `CCN(CC(F)(F)F)C(=O)COc1cncc(Br)c1` are -4% and 0.84.
In the same order, the values of `O=C(C[C@H]1C(=O)Nc2ccccc2N1C(=O)c1ccco1)Nc1ccc(Cl)c(Cl)c1` are -4% and 0.55.
In the same order, the values of `CCc1ccc(OCC(=O)c2ccc3c(c2)N(Cc2ccc(C(=O)NCCOC)o2)C(=O)CO3)cc1` are 2% and -0.37.
`CCOC[C@H]1CCCN1Cc1nncn1C(C)C`: the “% Inhibition” value is -1% and the Z score is 0.28.
Regarding `O=C(NCCN1Cc2cc(F)ccc2OCC1=O)c1cccc(OC(F)(F)F)c1`, the “% Inhibition” value is recorded as -10% and the Z score was 1.79.
As to `CN(CC(=O)N1CCN(CC2CCCC2)C(=O)C1)S(=O)(=O)c1ccc(C#N)cc1`, the “% Inhibition” value is listed as -8% and the Z score was found to be 1.08.
Consider `CCn1nc(C(=O)Nc2ccc(O)nn2)cc1C1CC1`, for which the “% Inhibition” value was -4% and the Z score came to 0.88.
In the case of `CC(C)c1ccc(N2C(=O)CC[C@@]2(C)C(=O)NC2CCCC2)cc1`, the “% Inhibition” value is -11% and the Z score was found to be 1.2.
Consider `CCCN(C)S(=O)(=O)c1cc(-c2nnc(C)o2)co1`, for which the “% Inhibition” value is recorded as -10% and the Z score is 1.3.
For `COC(=O)CC[C@@H]1CN(Cc2ccccc2F)CC[C@@H]1N1CCN(c2cccc(C(F)(F)F)c2)CC1`, the “% Inhibition” value was 8% and the Z score is reported as -1.04.
Turning to `CCCN(Cc1ccsc1)C(=O)c1snnc1C`, the “% Inhibition” value is reported as -13% and the Z score is reported as 1.91.
For `CCC(CC)C(=O)NCc1nc(C)cc(N(C)C)n1`, the “% Inhibition” value is reported as -1% and the Z score was 0.16.
For the compound `Cc1nc2ccccn2c1CN(C)CCc1cnn(C)c1`, the “% Inhibition” value is 0% and the Z score is -0.01.
With `C[C@H](NC(=O)Nc1cc2n(n1)CCN(C)C2=O)c1ccc(C#N)cc1`, the “% Inhibition” value is reported as -10% and the Z score stood at 1.91.
Regarding `Cc1cc(C(=O)NCCn2c(=O)n(Cc3ccc(F)cc3)c3cccnc32)no1`, the “% Inhibition” value is -14% and the Z score is on record as 1.58.
In the case of `CC(C)(Oc1ccc2c(c1)CCC2)C(=O)N1CCc2[nH]cnc2[C@@H]1C(=O)O`, the “% Inhibition” value is reported as -10% and the Z score was 1.25.
As to `Cn1ccnc1[C@H]1OCCC[C@@H]1C(=O)Nc1cc2cc[nH]c2cn1`, the “% Inhibition” value is -15% and the Z score is on record as 2.37.
On to `CN(C(=O)c1cnn(-c2ccc(F)cc2F)c1)c1cccc2ncccc12`, for which the “% Inhibition” value is recorded as -31% and the Z score is recorded as 3.65.
`CCN(CC)C(=O)[C@@H]1C[C@@H](NC(=O)c2ccc(N3CCCC3)cc2)CN1C`: the “% Inhibition” value is on record as 3% and the Z score is -0.46.
`CCNc1ncc(-c2nccn2-c2cc3c(cc2OC)n(C)c(=O)n3C)cn1`: the “% Inhibition” value turned out to be 6% and the Z score was -1.16.
With `O=C(Cn1[nH]c2ccccc2c1=O)NC1(Cc2ccc(Cl)cc2)CC1`, the “% Inhibition” value is -6% and the Z score came to 0.86.
The like results for `O=C(c1ccc(F)cc1)C1CCCN(C(=O)C2CCS(=O)(=O)C2)C1` (stereo unspecified) were, in that order, -14% and 1.29.
Take `CCn1nc(CC(C)C)cc1C(=O)N1C[C@H]2CCC[C@@H]1C2`: the “% Inhibition” value is -1% and the Z score is 0.24.
Regarding `Cc1cnc(NC(=O)CC2CC3CCC2C3)s1` (stereo unspecified), the “% Inhibition” value is reported as -2% and the Z score is recorded as 0.23.
For `CC(=O)N1CCC([C@H]2c3nccn3CCCN2Cc2ccccc2)CC1`, the “% Inhibition” value was 8% and the Z score is -1.13.
For the compound `O=C(Nc1nnc(C2CC2)s1)c1cccc(NC(=O)c2ccco2)c1`, the “% Inhibition” value is -21% and the Z score worked out at 1.95.
As to `CC1CN(C(=O)C2CCCN(CC(F)F)C2)C(C)CN1C` (stereo unspecified), the “% Inhibition” value is recorded as -1% and the Z score is reported as 0.22.
As for `CC(NC(=O)[C@H]1CC[C@@H](C(N)=O)C1)c1cc(Cl)cc(Cl)c1F` (stereo partly specified), the “% Inhibition” value was found to be 4% and the Z score is reported as -0.77.
In the case of `Cc1[nH]c2ccccc2c1C(=O)[C@H](C#N)C(=O)c1ccc2c(c1)OCO2`, the “% Inhibition” value is -22% and the Z score is reported as 2.01.
For the compound `Cc1ccn2cc(C(=O)N(C)CC3CC3)nc2c1`, the “% Inhibition” value was -14% and the Z score is given as 1.26.
In the case of `Cc1cccc(NC(=O)Cn2c(=O)n(CCc3cccs3)c(=O)c3ccccc32)c1C`, the “% Inhibition” value came out at 24% and the Z score is reported as -2.74.
In the same order, the values of `Cc1ccc(C(=O)N2CCN([C@H](C(=O)N(C)Cc3ccco3)C3CCCC3)CC2)cc1` are -7% and 0.88.
Regarding `CCC(=O)Nc1c(-c2ccncc2)nsc1C(=O)N1CCN(c2ccccc2C)CC1`, the “% Inhibition” value is -10% and the Z score is on record as 1.61.
Regarding `CCC[C@H](NC(C)=O)c1nc(-c2c[nH]c3ccccc23)n[nH]1`, the “% Inhibition” value was -10% and the Z score came to 1.25.
The like results for `COC(=O)c1cc(OC)ccc1OC(=O)CN(C)S(C)(=O)=O` were, in that order, -9% and 1.36.
Regarding `CCn1ncnc1-c1nccn1CCc1scnc1C`, the “% Inhibition” value is given as -5% and the Z score was found to be 0.96.
Consider `Cc1ccc(-c2noc(-c3cccn3CC(=O)N3CCCC3)n2)cc1`, for which the “% Inhibition” value worked out at 6% and the Z score is recorded as -0.95.
In the case of `O=C(c1ccc(Cl)s1)N1CCCCCCC1`, the “% Inhibition” value was -6% and the Z score stood at 0.81.
As for `Cn1cc(Br)cc(NCC(C)(C)C)c1=O`, the “% Inhibition” value is on record as -14% and the Z score stood at 2.13.
On to `Cc1cc(NC(=O)[C@@](C)(O)C2CCC2)nn1C(C)C`, for which the “% Inhibition” value is -4% and the Z score amounted to 0.68.
As for `Cn1c(-c2cccc(Cl)c2)nnc1N1CC[S+]([O-])CC1`, the “% Inhibition” value is reported as -10% and the Z score came out at 1.63.
In the same order, the values of `O=C(Nc1nccs1)C1C2CCCCC21` (stereo unspecified) are -7% and 1.03.
The like results for `CC(C#N)C(=O)NCC1CC2C=CC1CC2` (stereo unspecified) were, in that order, 14% and -1.82.
Take `CC(C)c1cc(C(=O)N2CC[C@]34C(=O)N(Cc5cn(nn5)CCCOc5cccc(c5)[C@H]23)c2ccccc24)on1`: the “% Inhibition” value was 5% and the Z score is -0.53.
For the compound `CCC1CN(C(CC)C(=O)NCc2ccc(C(C)=O)c(C)n2)CCO1` (stereo unspecified), the “% Inhibition” value was 3% and the Z score was -0.41.
The like results for `Cc1nn(-c2ccc(F)cc2)c(C)c1S(=O)(=O)N1CCC(C(=O)N2CCN(C)CC2)CC1` were, in that order, 0% and -0.04.
The like results for `CC[C@@H](C(=O)NS(=O)(=O)CC(F)(F)F)c1ccc(F)cc1` were, in that order, -16% and 1.59.
In the case of `CCN(CCCCO)C(=O)c1ccc(-c2cnccc2N)cc1`, the “% Inhibition” value is -3% and the Z score is on record as 0.52.
For the compound `COCCN(C)C(=O)c1nn(C)c2c1COCC2`, the “% Inhibition” value is recorded as 6% and the Z score is -0.81.
In the same order, the values of `Cc1cc(C(=O)N2CCOc3ccc(N(C)C)cc3C2)[nH]n1` are 4% and -0.77.
Take `CC(C)c1nccc(C(=O)N[C@H]2CCOC[C@@H]2OCc2ccccc2)n1`: the “% Inhibition” value is listed as -3% and the Z score amounted to 0.69.
Consider `O=C(c1cnc2ccccc2n1)N1CCc2n[nH]cc2C1`, for which the “% Inhibition” value is -3% and the Z score came to 0.56.
Consider `CNC(=O)c1cccc(NCC2(CN3CCN(C)CC3)CC2)n1`, for which the “% Inhibition” value is reported as 5% and the Z score is listed as -0.86.
As for `Cc1ccc(NC(=O)C[C@H](n2ccnc2)C(F)(F)F)c(O)n1`, the “% Inhibition” value is on record as -10% and the Z score was 1.36.
On to `CCc1nc(C)c(C(=O)NCc2noc(Cc3cccs3)n2)s1`, for which the “% Inhibition” value was -2% and the Z score turned out to be 0.27.
As to `O=C(CNC(=O)Cc1ccccc1)NCCC(=O)Nc1ccccn1`, the “% Inhibition” value is reported as -13% and the Z score was 2.51.
As to `CC(Nc1ccc2c(c1)OC1(CCCCC1)O2)C(=O)N(C)C1CCS(=O)(=O)C1` (stereo unspecified), the “% Inhibition” value is reported as -34% and the Z score is on record as 3.99.
For `O=C(NCCc1ccccc1)N1CC[C@@](F)(C(=O)NCc2ccccc2)C1`, the “% Inhibition” value is reported as -7% and the Z score came to 0.9.
`Cc1ccc(NC(=O)C2CCN(S(=O)(=O)c3ccc4c(c3)sc(=O)n4C(C)C)CC2)c(C)c1`: the “% Inhibition” value is on record as 5% and the Z score was -0.88.
With `Cc1cc(CNC(=O)c2ccccc2N2CCCC2)[nH]n1`, the “% Inhibition” value is given as -9% and the Z score was 1.13.
As for `Cn1c(=O)n([C@H]2CCN(C(=O)c3ccsc3)C2)c2ncncc21`, the “% Inhibition” value was -16% and the Z score is 1.64.
The like results for `CN(C)C(=O)N1CCC(c2nnc3n2CCN(C(=O)c2ccc4ncccc4c2)C3)CC1` were, in that order, -7% and 1.12.
As to `Cc1ccc(N2CC[C@@H](C(=O)N3CCN(Cc4ccccc4)CC3)C2=O)c(Cl)c1`, the “% Inhibition” value is -14% and the Z score stood at 1.26.
Regarding `NC(=O)[C@H](Cc1ccccc1)NCC(=O)NC1CCCCCCC1`, the “% Inhibition” value is recorded as -14% and the Z score is reported as 1.97.
`COCC1(C(=O)N[C@@H](Cc2ccccc2)c2ccccc2)CCC1`: the “% Inhibition” value came out at 6% and the Z score is given as -1.12.
